Experimental data published in article PMC7822688, “W196 and the β-Hairpin Motif Modulate the Redox Switch of Conformation and the Biomolecular Interaction Network of the Apoptosis-Inducing Factor” (Oxidative Medicine and Cellular Longevity, 2021).

B1: W196Y hAIF_(Δ[…]) (domain or fragment)
chain: not shown
notes: FAD holoprotein; 'ox' oxidized, 'CTC' after reduction with NADH; The His6 tag is called cleavable; whether it was cleaved is told only in the supplementary materials; also called W196Yox; W196Y CTC; source: E. coli C41 (DE3), purified to homogeneity (protocol in the supplementary materials)
B2: W196L hAIF_(Δ[…]) (domain or fragment)
chain: not shown
notes: FAD holoprotein; 'ox' oxidized, 'CTC' after reduction with NADH; The His6 tag is called cleavable; whether it was cleaved is told only in the supplementary materials; also called W196Lox; W196L CTC; source: E. coli C41 (DE3), purified to homogeneity (protocol in the supplementary materials)
B3: W196A hAIF_(Δ[…]) (domain or fragment)
chain: not shown
notes: FAD holoprotein; 'ox' oxidized, 'CTC' after reduction with NADH; The His6 tag is called cleavable; whether it was cleaved is told only in the supplementary materials; also called W196Aox; source: E. coli C41 (DE3), purified to homogeneity (protocol in the supplementary materials)

Tests used:
[1] = molecular target: T1, human cyclophilin A (CypA) (human, UniProt P62937); assay: ITC; Auto-iTC200, 25°C, 50 mM potassium phosphate, pH 7.4; 10-20 μM protein partner titrated into ~10 μM oxidized hAIF_(∆1-101) variant, without NADH; single-ligand binding site model; details: both partners purified
T1 construct: human cyclophilin A (CypA), UniProtKB P62937; synthetic codon-optimised cDNA in pET28a (NdeI-NotI); The His6 tag is called cleavable; whether it was cleaved is told only in the supplementary materials; source: E. coli C41 (DE3), purified (protocol in the supplementary materials)

[2] = molecular target: the molecule itself; assay: cross-linking; 4 μM hAIF_(∆1-101) variant, 100-fold excess of BS^3, 10 mM phosphate, pH 7.4, room temperature, 12% SDS-PAGE; with an excess of NADH (CTC state)

| Binder | Kd [1] [nM] | stoichiometry N [2] |
| --- | --- | --- |
| B1 | 1000 | 2 |
| B2 |  | 2 |
| B3 | 1800 | 2 |
